Results published in the supplement of paper PMC4604168 (melanoma cell lines).
The other results are listed elsewhere or left out. Repeats are few or missing, and single values can be far off.

These compounds were tested on A375 (assay: cell count relative to DMSO control; melanoma cells; higher = more viable cells). Conditions: library dose: low library concentration; 72 h.
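Note: cell number obtained by counting DAPI-stained nuclei in high-throughput microscope images with image analysis software, screen run in 1,536-well plates.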

Row | SMILES | cell count [%]
1 | OCc1c[nH]c2ccccc12 [Indole-3-carbinol] + C[As](C)SC[C@H](NC(=O)CC[C@H](N)C(=O)O)C(=O)NCC(=O)O [Darinaparsin] (first compound 0.8 µM, partner dose 0.4 µM) | 118
2 | C[C@@H](N)c1ccc(C(=O)Nc2ccnc3[nH]ccc23)cc1 + Cn1cc(C2=C(c3cn(C4CCN(Cc5ccccn5)CC4)c4ccccc34)C(=O)NC2=O)c2ccccc21 [Enzastaurin] (first compound 0.4 µM, partner dose 0.8 µM) | 93.2
3 | O=C(Nc1cc(C(F)(F)F)cc(C(F)(F)F)c1)c1cc(Cl)ccc1O + C[As](C)SC[C@H](NC(=O)CC[C@H](N)C(=O)O)C(=O)NCC(=O)O [Darinaparsin] (first compound 0.016 µM, partner dose 0.4 µM) | 93.4
4 | COc1cc([C@@H]2c3cc4c(cc3[C@@H](O[C@@H]3O[C@@H]5CO[C@@H](C)O[C@H]5[C@H](O)[C@H]3O)[C@H]3COC(=O)[C@H]23)OCO4)cc(OC)c1O [etoposide] + C[As](C)SC[C@H](NC(=O)CC[C@H](N)C(=O)O)C(=O)NCC(=O)O [Darinaparsin] (first compound 0.02 µM, partner dose 0.4 µM) | 115
5 | Cc1cn(-c2cc(NC(=O)c3ccc(C)c(Nc4nccc(-c5cccnc5)n4)c3)cc(C(F)(F)F)c2)cn1 [nilotinib] + C[C@]12O[C@H](C[C@]1(O)CO)n1c3ccccc3c3c4c(c5c6ccccc6n2c5c31)CNC4=O [Lestaurtinib] (first compound 0.2 µM, partner dose 0.004 µM) | 88.1
6 | Cn1cnc2c(F)c(Nc3ccc(Br)cc3Cl)c(C(=O)NOCCO)cc21 [selumetinib] + N.N.[Cl][Pt][Cl] [cisplatin] (first compound 0.015 µM, partner dose 1.6 µM) | 74.8
7 | Cc1ccc(Nc2nccc(N(C)c3ccc4c(C)n(C)nc4c3)n2)cc1S(N)(=O)=O [Pazopanib] + Cn1cc(C2=C(c3cn(C4CCN(Cc5ccccn5)CC4)c4ccccc34)C(=O)NC2=O)c2ccccc21 [Enzastaurin] (first compound 0.4 µM, partner dose 0.8 µM) | 95.8

These compounds were tested on C32 in the same assay as above. Conditions: library dose: low library concentration; 72 h.

Row | SMILES | cell count [%]
8 | CCCCCCCCCCCCCCCCCCOP(=O)([O-])OC1CC[N+](C)(C)CC1 [Perifosine] + N.N.[Cl][Pt][Cl] [cisplatin] (first compound 0.4 µM, partner dose 1.6 µM) | 92.6
9 | Cc1ccc(Nc2nccc(N(C)c3ccc4c(C)n(C)nc4c3)n2)cc1S(N)(=O)=O [Pazopanib] + N.N.[Cl][Pt][Cl] [cisplatin] (first compound 0.4 µM, partner dose 1.6 µM) | 108
10 | O=c1[nH]nc(Sc2ncc([N+](=O)[O-])s2)n1-c1ccc2c(c1)OCCO2 + N.N.[Cl][Pt][Cl] [cisplatin] (first compound 0.2 µM, partner dose 1.6 µM) | 111
11 | C[C@]1(O)C[C@@H](c2nc(-c3ccc4ccc(-c5ccccc5)nc4c3)c3c(N)nccn32)C1 + C[As](C)SC[C@H](NC(=O)CC[C@H](N)C(=O)O)C(=O)NCC(=O)O [Darinaparsin] (first compound 0.4 µM, partner dose 0.4 µM) | 92.8
12 | Cn1sc(=O)n(Cc2ccccc2)c1=O + C[As](C)SC[C@H](NC(=O)CC[C@H](N)C(=O)O)C(=O)NCC(=O)O [Darinaparsin] (first compound 0.4 µM, partner dose 0.4 µM) | 101
13 | N#CC[C@H](C1CCCC1)n1cc(-c2ncnc3[nH]ccc23)cn1 [ruxolitinib] + C[As](C)SC[C@H](NC(=O)CC[C@H](N)C(=O)O)C(=O)NCC(=O)O [Darinaparsin] (first compound 1 µM, partner dose 0.4 µM) | 107
14 | O=c1[nH]nc(Sc2ncc([N+](=O)[O-])s2)n1-c1ccc2c(c1)OCCO2 + Cn1cc(C2=C(c3cn(C4CCN(Cc5ccccn5)CC4)c4ccccc34)C(=O)NC2=O)c2ccccc21 [Enzastaurin] (first compound 0.2 µM, partner dose 0.8 µM) | 106
15 | CCCCCCCCc1ccc(CCC(N)(CO)CO)cc1 [fingolimod] + N.N.[Cl][Pt][Cl] [cisplatin] (first compound 2 µM, partner dose 1.6 µM) | 104
16 | CNC(=O)c1cc(Oc2ccc(NC(=O)Nc3ccc(Cl)c(C(F)(F)F)c3)cc2)ccn1 [sorafenib] + C[As](C)SC[C@H](NC(=O)CC[C@H](N)C(=O)O)C(=O)NCC(=O)O [Darinaparsin] (first compound 0.4 µM, partner dose 0.4 µM) | 87.1
17 | O=C(Nc1cc(C(F)(F)F)cc(C(F)(F)F)c1)c1cc(Cl)ccc1O + Cn1cc(C2=C(c3cn(C4CCN(Cc5ccccn5)CC4)c4ccccc34)C(=O)NC2=O)c2ccccc21 [Enzastaurin] (first compound 0.016 µM, partner dose 0.8 µM) | 121
18 | CC1(C)CCC(c2ccc(Cl)cc2)=C(CN2CCN(c3ccc(C(=O)NS(=O)(=O)c4ccc(N[C@H](CCN5CCOCC5)CSc5ccccc5)c(S(=O)(=O)C(F)(F)F)c4)cc3)CC2)C1 + C[As](C)SC[C@H](NC(=O)CC[C@H](N)C(=O)O)C(=O)NCC(=O)O [Darinaparsin] (first compound 0.4 µM, partner dose 0.4 µM) | 64.8
19 | CCN(CC)CCNC(=O)c1c(C)[nH]c(/C=C2\C(=O)Nc3ccc(F)cc32)c1C [sunitinib] + C[As](C)SC[C@H](NC(=O)CC[C@H](N)C(=O)O)C(=O)NCC(=O)O [Darinaparsin] (first compound 0.4 µM, partner dose 0.4 µM) | 93.4
20 | Cc1ccc(Nc2nccc(N(C)c3ccc4c(C)n(C)nc4c3)n2)cc1S(N)(=O)=O [Pazopanib] + C[C@]12O[C@H](C[C@]1(O)CO)n1c3ccccc3c3c4c(c5c6ccccc6n2c5c31)CNC4=O [Lestaurtinib] (first compound 0.4 µM, partner dose 0.004 µM) | 92.7
21 | CC[C@]1(O)C[C@H]2CN(CCc3c([nH]c4ccccc34)[C@@](C(=O)OC)(c3cc4c(cc3OC)N(C=O)[C@H]3[C@@](O)(C(=O)OC)[C@H](OC(C)=O)[C@]5(CC)C=CCN6CC[C@]43[C@@H]65)C2)C1 [vincristine] + C[C@]12O[C@H](C[C@]1(O)CO)n1c3ccccc3c3c4c(c5c6ccccc6n2c5c31)CNC4=O [Lestaurtinib] (first compound 0.0001 µM, partner dose 0.004 µM) | 92
22 | CC(=O)c1c(C)c2cnc(Nc3ccc(N4CCNCC4)cn3)nc2n(C2CCCC2)c1=O [palbociclib] + C[As](C)SC[C@H](NC(=O)CC[C@H](N)C(=O)O)C(=O)NCC(=O)O [Darinaparsin] (first compound 0.04 µM, partner dose 0.4 µM) | 67.2
23 | CC[C@]1(O)C[C@H]2CN(CCc3c([nH]c4ccccc34)[C@@](C(=O)OC)(c3cc4c(cc3OC)N(C=O)[C@H]3[C@@](O)(C(=O)OC)[C@H](OC(C)=O)[C@]5(CC)C=CCN6CC[C@]43[C@@H]65)C2)C1 [vincristine] + Cn1cc(C2=C(c3cn(C4CCN(Cc5ccccn5)CC4)c4ccccc34)C(=O)NC2=O)c2ccccc21 [Enzastaurin] (first compound 0.0001 µM, partner dose 0.8 µM) | 85.7
24 | CC[C@]1(O)C[C@H]2CN(CCc3c([nH]c4ccccc34)[C@@](C(=O)OC)(c3cc4c(cc3OC)N(C=O)[C@H]3[C@@](O)(C(=O)OC)[C@H](OC(C)=O)[C@]5(CC)C=CCN6CC[C@]43[C@@H]65)C2)C1 [vincristine] + C[As](C)SC[C@H](NC(=O)CC[C@H](N)C(=O)O)C(=O)NCC(=O)O [Darinaparsin] (first compound 0.0001 µM, partner dose 0.4 µM) | 66.1
25 | Cn1sc(=O)n(Cc2ccccc2)c1=O + C[C@]12O[C@H](C[C@]1(O)CO)n1c3ccccc3c3c4c(c5c6ccccc6n2c5c31)CNC4=O [Lestaurtinib] (first compound 0.4 µM, partner dose 0.004 µM) | 113
26 | N#CC[C@H](C1CCCC1)n1cc(-c2ncnc3[nH]ccc23)cn1 [ruxolitinib] + Cn1cc(C2=C(c3cn(C4CCN(Cc5ccccn5)CC4)c4ccccc34)C(=O)NC2=O)c2ccccc21 [Enzastaurin] (first compound 1 µM, partner dose 0.8 µM) | 112
27 | Cc1cn(-c2cc(NC(=O)c3ccc(C)c(Nc4nccc(-c5cccnc5)n4)c3)cc(C(F)(F)F)c2)cn1 [nilotinib] + N.N.[Cl][Pt][Cl] [cisplatin] (first compound 0.2 µM, partner dose 1.6 µM) | 118
28 | CCCS(=O)(=O)Nc1ccc(F)c(C(=O)c2c[nH]c3ncc(Cl)cc23)c1F + C[As](C)SC[C@H](NC(=O)CC[C@H](N)C(=O)O)C(=O)NCC(=O)O [Darinaparsin] (first compound 0.08 µM, partner dose 0.4 µM) | 71.3
29 | N#CC[C@H](C1CCCC1)n1cc(-c2ncnc3[nH]ccc23)cn1 [ruxolitinib] + N.N.[Cl][Pt][Cl] [cisplatin] (first compound 1 µM, partner dose 1.6 µM) | 93.3
